{"source": "paper PMC12136788", "binders": {"B1": {"name": "chr17:65740002:65740003:+_ENSG00000130935_ENST00000581375|hu_hu|hu_hu_hu_mus_False|88_98 (ssRNA)", "RNA": "GGGAGUUCUACAGUCCGACGAUCAACAAAUCUUUCUCUGGAUGAAGCAAGAGUUCAUUCAUAUUAAAAAAAAUAUAUAUCCAUCAAGUUAGGUGUGGUGGCCACACCUUUACUCCCAGCACUUUGGGAGGUGGAUCUCUGAGUCAACAGAGGAUUGAGCAUCA"}, "B2": {"name": "127979771_127981217_349_CDS_ENSG00000106344_ENST00000459726|human|control|control (ssRNA)", "RNA": "GGGAGUUCUACAGUCCGACGAUCCUCCUUGAGGGCCCUCUGAACAUCUUCCAGCAUUGAAAAAGUGACAUAGCCAAAGCCUCGACAUGCCUUACUCCCUGAAAAGGACACAUAGUUCAUAUGCUCUGCUUCUCUUUCCACUGCCAACAGAGGAUUGAGCAUCA"}, "B3": {"name": "chr5:128440902:128440903:+_ENSG00000066583_ENST00000173527|hu_mus|hu_hu_hu_mus_True|1_68 (ssRNA)", "RNA": "GGGAGUUCUACAGUCCGACGAUCUUGAACGGUGCUGCCAAGUCCUUUGGGGUAUUGUUCCGUUAUGAUAACAGGAAUCCCUAAGAUCCGAGCUCCUUGCAACAGUCUCUGUCCCACACUAAUGAUGUCCCCAAAGUACUUGAUCAACAGAGGAUUGAGCAUCA"}, "B4": {"name": "81058291_81058880_2252_CDS_ENSG00000108175_ENST00000334512|human|control|control (ssRNA)", "RNA": "GGGAGUUCUACAGUCCGACGAUCCUCCAGGCGGAAGGGCUCCAGCACCACGCCAUCCCGCACAGGGAAUGUGAGCCGCAGCUCGUCAUUGUGGUUGGCUGGGGGUGGUGGCAGAGCGCUCAUAUUUGGCUUGAUGUCAGGCGGCAACAGAGGAUUGAGCAUCA"}, "B5": {"name": "chr12:42180722:42180723:-_ENSMUSG00000036295_ENSMUST00000043884|mus_hu|mus_mus_mus_hu_True|18_68 (ssRNA)", "RNA": "GGGAGUUCUACAGUCCGACGAUCCUGUAGGAGAAGAAUCUGUGUGUUAGCUGGCAAUCUGGCUGGGAAGUUUAAAAGACCUAAAUCAUUACAAUCCACUGUAGAUGCUUCCAUAUAGAUGGAUCUCGGUGUAAACCAAGGCCUCAACAGAGGAUUGAGCAUCA"}, "B6": {"name": "chr7:150253219:150253220:+_ENSMUSG00000037706_ENSMUST00000037941|mus_mus|motif|central (ssRNA)", "RNA": "GGGAGUUCUACAGUCCGACGAUCCCGGAUGCCACAGCACAGCACCAUGCUCAGAAUCAUCUCAAAGAUCAUAAUGACAGCGGCCACAAUGGCUGCAAUUCCAAUGAGGUACAGCUUCCCAGAGAAGAGCUCAUCGAUUUUCUGCAACAGAGGAUUGAGCAUCA"}, "B7": {"name": "2814021_2814141_4101_CDS_ENSG00000167978_ENST00000301740|human|control|control (ssRNA)", "RNA": "GGGAGUUCUACAGUCCGACGAUCGUCUUUGAAUACCAGUGAAGACUCAGGCCUAUCCUGUACUGGAAAGGGACUAAAUUUGUCUUUCUGUCUAGGAGGUGAUGCAGUAGCAUCCUCCUGAGGGGGUAAGGCCAUUUUCUCUUUCAACAGAGGAUUGAGCAUCA"}, "B8": {"name": "chr14:66974463:66974464:+_ENSMUSG00000022044_ENSMUST00000074523|mus_hu|mus_mus_mus_hu_False|28_28 (ssRNA)", "RNA": "GGGAGUUCUACAGUCCGACGAUCUUGUAGGACGACUUAUUCAGGGGAUCGGCCAGGAAGCAGGAGCAGAACAAGGACACCAGCGGGAGCUCCUUCAUCUUCUCUUUAUAGGCUGCAAGGGUCAUGUUUCUGGGAUCUGGUGGCCAACAGAGGAUUGAGCAUCA"}, "B9": {"name": "chr10:62551973:62551974:+_ENSG00000170312_ENST00000395284|hu_mus|FALSE|FALSE (ssRNA)", "RNA": "GGGAGUUCUACAGUCCGACGAUCUAGCAUUUUUGAGAGCAAAUCCAAGCCGUUCUCGUCCAGGUUCUUGACGUGGGAUGCGAGGCUCCCCGGCUUCCACUUGGGAAAGGUGUUCUUGUAGUCCUGCAGGGACUCGACUUCUGGCAACAGAGGAUUGAGCAUCA"}, "B10": {"name": "37474625_37474745_1063_CDS_ENSG00000003509_ENST00000002125|human|control|control (ssRNA)", "RNA": "GGGAGUUCUACAGUCCGACGAUCUUUUAAAAAUGUGUGUUGUUUUAUUGGGCCCAGAGAGGCUACUUUUCCCUGUGCCAUUCUUCGCAAAUAACUGAAGUCCACAUCAGCUGUUAGAUCUGCUGUUCCUGGGGCAAUUAAGACCAACAGAGGAUUGAGCAUCA"}, "B11": {"name": "48218050_48221637_871_3pUTR_ENSMUSG00000028343_ENSMUST00000030028|mouse|control|control (ssRNA)", "RNA": "GGGAGUUCUACAGUCCGACGAUCAUCCUUCAUGUGGAAGAGUAUGAGAAAAGGCAGUCCUUCUUCUGUCAAUUCCUCUCCAUUUUCAAAUGUUAUUUCUCGGACAAGAGGGACACAUUUAUCUUGAAUCCAGUUGUAAGUUACCAACAGAGGAUUGAGCAUCA"}, "B12": {"name": "chr1:87185206:87185207:+_ENSG00000097033_ENST00000482504|hu_mus|FALSE|FALSE (ssRNA)", "RNA": "GGGAGUUCUACAGUCCGACGAUCCGGGUUGUUUAUACGACUUGGUGCUUUUCUAUCCAGUUUCUCAUAAACAAAUUCUUCUAUCCUGGCAUUUGGAUUUGGCUGCAACAGCACUUCGGUCUGCUUCAUUAUCUUUUCUGUCCACAACAGAGGAUUGAGCAUCA"}, "B13": {"name": "chr1:163112212:163112213:-_ENSG00000143248_ENST00000313961|hu_hu|hu_hu_hu_mus_False|8_8 (ssRNA)", "RNA": "GGGAGUUCUACAGUCCGACGAUCUUUUAUUAUCAGUAAGAGUGAGUUACAUACUAGGCAAAGUAUUGGAUACAAUAAUCAGGAAACAAACACUAUUGGUCCAGAAUUUAAAACUUUAUGAGCGAAGGCUUACAAAUGGACUUACAACAGAGGAUUGAGCAUCA"}, "B14": {"name": "chr12:8716970:8716971:+_ENSMUSG00000020594_ENSMUST00000111122|mus_hu|motif|central (ssRNA)", "RNA": "GGGAGUUCUACAGUCCGACGAUCUGGAGAAGCCUUGCCUUUUUGAUCUCCUUUCUCAGGUCCAUCUGUUUCAGCAUCUCGGGUGCCAAAAUUUCCCUUCCUAAAUCGAGAAUCCAAUUUAUCAGCAGGAGAAGAACUUAAUACCAACAGAGGAUUGAGCAUCA"}, "B15": {"name": "chr9:135984185:135984186:-_ENSG00000160271_ENST00000372050|hu_hu|FALSE|FALSE (ssRNA)", "RNA": "GGGAGUUCUACAGUCCGACGAUCGUCUGAGCCUGGCAUGUUGAGCUGCACGUAGGCCACCAGCUGCUUGAGGCAGGGAAAGUCCGGAGGUUGACAGAAAUCCUCCGAGUACUGGUCCAGCCAGGUGCCCAGGAUGGAGGAGAUCAACAGAGGAUUGAGCAUCA"}, "B16": {"name": "chr17:2203652:2203653:-_ENSG00000070366_ENST00000263073|hu_hu|FALSE|FALSE (ssRNA)", "RNA": "GGGAGUUCUACAGUCCGACGAUCUCGUCCAGGCUGAUAGAUCUGCAGGUCGGGUUUCUUUGUUCUUUUGAUAAUUUUUAGACUACGAUCCUCUUGUCCAGCAGUCCUAGGAAAGGAUUCUUGUCCCCGAUUAUUUUCUGGGUCCAACAGAGGAUUGAGCAUCA"}, "B17": {"name": "chr7:36506639:36506640:-_ENSMUSG00000043671_ENSMUST00000051377|mus_mus|motif|central (ssRNA)", "RNA": "GGGAGUUCUACAGUCCGACGAUCGAACAGCACCAGUGCCUGCAGCAGCAUCAUGAACUGGUUAAAUUGCCAUGUCAGGCGGAAGAGAAAAGUUGAUACGAAAAUGGCAAGAAGUGUCAGCCUUUCAGAAAGAGGCUGUAAAUUCAACAGAGGAUUGAGCAUCA"}, "B18": {"name": "chr14:65675725:65675726:-_ENSMUSG00000021978_ENSMUST00000022550|mus_mus|FALSE|FALSE (ssRNA)", "RNA": "GGGAGUUCUACAGUCCGACGAUCGAUGGGGGGUUUCCGUGUGAUGUGGGAGACAAGGAAGUUCAUGGCGAUAUCCUCACAGUUGAUGUACUCGUCCACCAUGUCCCGGAUGGCCUGGGGCAUCACAUAAGAAUACAGGUAGGCCAACAGAGGAUUGAGCAUCA"}, "B19": {"name": "chr1:130260868:130260869:-_ENSMUSG00000026356_ENSMUST00000027602|mus_hu|FALSE|FALSE (ssRNA)", "RNA": "GGGAGUUCUACAGUCCGACGAUCAGUGAGUCGUUUGGGAUCACGAGGGAACAUGGAGGUCUGACGAACAUUAUGCAAUCCCAGAAACAGCAUAGUAACUCGUUCCAAUCCAAUGCCUCCACCAGCAUGAGGAGGGGCUCCAAACAACAGAGGAUUGAGCAUCA"}, "B20": {"name": "chr17:74801258:74801259:+_ENSMUSG00000024069_ENSMUST00000024870|mus_mus|FALSE|FALSE (ssRNA)", "RNA": "GGGAGUUCUACAGUCCGACGAUCGUUGAUUGCACCGAACAGAAGGAUCUUCCAGGACCUCCGGUCAGCUGCGACAAGUCUAAAUUCCUGUAGUAACUUUCCAAAAAAAGAUCUCUGUGGCUUUCGAAAGAGAUGAAUCGUCCCCAACAGAGGAUUGAGCAUCA"}, "B21": {"name": "chr5:31409407:31409408:-_ENSG00000113360_ENST00000513349|hu_mus|FALSE|FALSE (ssRNA)", "RNA": "GGGAGUUCUACAGUCCGACGAUCGAACUCCUUCAGCCGGGGAAAGAAGCAGACGUUCAUGAAAGUGUGGACAUAUUCCAGGUCCUUGUCGAUGUACAGCGCUGCGAUAAAUGAUUCCAAAAGGUCUGCCAAAGUCUUGGUUCUCAACAGAGGAUUGAGCAUCA"}, "B22": {"name": "chr9:95013113:95013114:-_ENSG00000196305_ENST00000443024|hu_hu|hu_hu_hu_mus_False|48_88 (ssRNA)", "RNA": "GGGAGUUCUACAGUCCGACGAUCCUCAGUCAGAAAGGGCGUGUAAGGAGCCAUAAGUCUGCACAGAGAAAGCAGGACACUGAACAGGGUUUCUAGGGCCAUGACACAGUCUUCCACCCCACUCUCACCCUUUAACCUCCUCCUCAACAGAGGAUUGAGCAUCA"}}, "note": "The list shows a part of the results.", "data": [{"target": "T1, UNK ZnF1-3 (human, UniProt Q9C0B0 31-174)", "T1 sequence": "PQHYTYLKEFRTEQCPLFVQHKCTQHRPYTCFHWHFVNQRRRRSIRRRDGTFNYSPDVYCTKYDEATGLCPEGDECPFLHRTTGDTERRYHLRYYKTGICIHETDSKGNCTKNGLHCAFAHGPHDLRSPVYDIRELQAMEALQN", "assay": "nsRBNS (natural sequence RNA bind-n-seq); RBNS binding buffer (assumed for nsRBNS): 25 mM Tris pH 7.5, 150 mM KCl, 3 mM MgCl2, 0.01% Triton X-100, 500 ug/ml BSA, 20 U/ml SUPERase-In, 4 C; UNK is unkempt and MSI1 is Musashi-1; names of the RNAs are library labels; protein concentration not given here; high values mean tight binding", "units": {"binding signal": "enrichment R"}, "values": [{"binder": "B1", "binding signal": 0.695}, {"binder": "B2", "binding signal": 1.21}, {"binder": "B3", "binding signal": 0.638}, {"binder": "B4", "binding signal": 0.834}, {"binder": "B5", "binding signal": 0.955}, {"binder": "B6", "binding signal": 1.29}, {"binder": "B7", "binding signal": 0.562}, {"binder": "B8", "binding signal": 2.44}, {"binder": "B9", "binding signal": 1.05}, {"binder": "B10", "binding signal": 1.51}, {"binder": "B11", "binding signal": 1.1}, {"binder": "B12", "binding signal": 0.339}, {"binder": "B13", "binding signal": 1.05}, {"binder": "B14", "binding signal": 1.02}, {"binder": "B15", "binding signal": 1.4}, {"binder": "B16", "binding signal": 0.687}, {"binder": "B17", "binding signal": 1.84}, {"binder": "B18", "binding signal": 0.999}, {"binder": "B19", "binding signal": 1.34}, {"binder": "B20", "binding signal": 0.948}, {"binder": "B21", "binding signal": 1.11}, {"binder": "B22", "binding signal": 0.65}]}]}
